Source: the supplement of paper PMC8728848
Some of the results follow.

Key:
Assay in all cases: glycan array binding signal (z-score within array); higher = stronger binding
Conditions in all cases: glycan notation: IUPAC condensed, linker removed
[1] = target: Gal(a1-4)Gal(b1-4)GlcNAc
Summary of the method: (§1)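 Arrays were curated from the Consortium for Functional Glycomics database, 3228 in total, and kept only where the protein sequence was available. Binding is expressed as a within-array Z-score. This score was averaged across arrays of the same protein sequence at different concentrations or buffers and across linkers, and negative values can be read as non-binding.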

[2] = target: Gal(a1-4)Gal(b1-4)GlcNAc(b1-2)Man(a1-3)[Gal(a1-4)Gal(b1-4)GlcNAc(b1-2)Man(a1-6)]Man(b1-4)GlcNAc(b1-4)GlcNAc
Summary of the method: as §1

[3] = target: Gal(a1-4)Gal(b1-4)GlcNAc(b1-3)Gal(b1-4)Glc
Summary of the method: as §1

[4] = target: Gal(a1-4)GlcNAc
Summary of the method: as §1

[5] = target: Gal(a1-6)Glc
Summary of the method: as §1

[6] = target: Gal(b1-2)Gal
Summary of the method: as §1

[7] = target: Gal(b1-3)Gal
Summary of the method: as §1

[8] = target: Gal(b1-3)Gal(b1-4)GlcNAc
Summary of the method: as §1

[9] = target: Gal(b1-3)Gal(b1-4)GlcNAc(b1-2)Man(a1-3)[Gal(b1-3)Gal(b1-4)GlcNAc(b1-2)Man(a1-6)]Man(b1-4)GlcNAc(b1-4)GlcNAc
Summary of the method: as §1

[10] = target: Gal(b1-3)GalNAc
Summary of the method: as §1

[11] = target: Gal(b1-3)GalNAc(a1-3)[Fuc(a1-2)]Gal(b1-4)Glc
Summary of the method: as §1

[12] = target: Gal(b1-3)GalNAc(a1-3)[Fuc(a1-2)]Gal(b1-4)GlcNAc
Summary of the method: as §1

[13] = target: Gal(b1-3)GalNAc(b1-3)Gal(a1-4)Gal(b1-4)Glc
Summary of the method: as §1

[14] = target: Gal(b1-3)GalNAc(b1-4)Gal(b1-4)Glc
Summary of the method: as §1

[15] = target: Gal(b1-3)GalNAc(b1-4)[Neu5Ac(a2-3)]Gal(b1-4)Glc
Summary of the method: as §1

[16] = target: Gal(b1-3)GlcNAc
Summary of the method: as §1

[17] = target: Gal(b1-3)GlcNAc(a1-3)Gal(b1-4)GlcNAc
Summary of the method: as §1

[18] = target: Gal(b1-3)GlcNAc(a1-6)Gal(b1-4)GlcNAc
Summary of the method: as §1

[19] = target: Gal(b1-3)GlcNAc(b1-2)Man(a1-3)[Gal(b1-3)GlcNAc(b1-2)Man(a1-6)]Man(b1-4)GlcNAc(b1-4)GlcNAc
Summary of the method: as §1

[20] = target: Gal(b1-3)GlcNAc(b1-2)Man(a1-3)[Gal(b1-3)GlcNAc(b1-2)Man(a1-6)]Man(b1-4)GlcNAc(b1-4)[Fuc(a1-6)]GlcNAc
Summary of the method: as §1

[21] = target: Gal(b1-3)GlcNAc(b1-2)Man(a1-3)[GlcNAc(b1-4)][Gal(b1-3)GlcNAc(b1-2)Man(a1-6)]Man(b1-4)GlcNAc(b1-4)GlcNAc
Summary of the method: as §1

[22] = target: Gal(b1-3)GlcNAc(b1-2)[Gal(b1-3)GlcNAc(b1-6)]Man(a1-6)[Gal(b1-3)GlcNAc(b1-2)Man(a1-3)]Man(b1-4)GlcNAc(b1-4)GlcNAc
Summary of the method: as §1

[23] = target: Gal(b1-3)GlcNAc(b1-3)Gal(b1-3)GlcNAc
Summary of the method: as §1

[24] = target: Gal(b1-3)GlcNAc(b1-3)Gal(b1-4)Glc
Summary of the method: as §1

[25] = target: Gal(b1-3)GlcNAc(b1-3)Gal(b1-4)GlcNAc
Summary of the method: as §1

[26] = target: Gal(b1-3)GlcNAc(b1-3)Gal(b1-4)GlcNAc(b1-6)[Gal(b1-3)GlcNAc(b1-3)]Gal(b1-4)Glc
Summary of the method: as §1

[27] = target: Gal(b1-3)GlcNAc(b1-3)Gal(b1-4)[Fuc(a1-3)]GlcNAc(b1-6)[Gal(b1-3)GlcNAc(b1-3)]Gal(b1-4)Glc
Summary of the method: as §1

[28] = target: Gal(b1-3)GlcNAc(b1-3)GalNAc
Summary of the method: as §1

[29] = target: Gal(b1-3)GlcNAc(b1-6)Gal(b1-4)GlcNAc
Summary of the method: as §1

[30] = target: Gal(b1-3)GlcNAc(b1-6)GalNAc
Summary of the method: as §1

[31] = target: Gal(b1-3)GlcNAc6S
Summary of the method: as §1

[32] = target: Gal(b1-3)[Fuc(a1-4)]GlcNAc
Summary of the method: as §1

[33] = target: Gal(b1-3)[Fuc(a1-4)]GlcNAc(b1-2)Man(a1-3)[Gal(b1-3)[Fuc(a1-4)]GlcNAc(b1-2)Man(a1-6)]Man(b1-4)GlcNAc(b1-4)[Fuc(a1-6)]GlcNAc
Summary of the method: as §1

[34] = target: Gal(b1-3)[Fuc(a1-4)]GlcNAc(b1-3)Gal(b1-3)[Fuc(a1-4)]GlcNAc
Summary of the method: as §1

[35] = target: Gal(b1-3)[Fuc(a1-4)]GlcNAc(b1-3)Gal(b1-4)GlcNAc
Summary of the method: as §1

[36] = target: Gal(b1-3)[Fuc(a1-4)]GlcNAc(b1-3)Gal(b1-4)[Fuc(a1-3)]GlcNAc
Summary of the method: as §1

[37] = target: Gal(b1-3)[Fuc(a1-4)]GlcNAc(b1-6)GalNAc
Summary of the method: as §1

[38] = target: Gal(b1-3)[GlcNAc(b1-6)]GalNAc
Summary of the method: as §1

[39] = target: Gal(b1-3)[Neu5Ac(a2-6)]GalNAc
Summary of the method: as §1

[40] = target: Gal(b1-3)[Neu5Ac(a2-6)]GlcNAc(b1-6)Gal(b1-4)Glc
Summary of the method: as §1

[41] = target: Gal(b1-3)[Neu5Ac(b2-6)]GalNAc
Summary of the method: as §1

[42] = target: Gal(b1-4)Gal
Summary of the method: as §1

[43] = target: Gal(b1-4)GalNAc(a1-3)[Fuc(a1-2)]Gal(b1-4)GlcNAc
Summary of the method: as §1

[44] = target: Gal(b1-4)GalNAc(b1-3)[Fuc(a1-2)]Gal(b1-4)GlcNAc
Summary of the method: as §1

[45] = target: Gal(b1-4)Glc
Summary of the method: as §1

B1: SalT (Orysata sativa) (protein)
chain: MTLVKIGLWGGNGGSAQDISVPPKKLLGVTIYSSDAIRSIAFNYIGVDGQEYAIGPWGGGEGTSTEIKLGSSEHIKEISGTHGPVYDLADIVTYLKIVTSANNTYEAGVPNGKEFSIPLQDSGHVVGFFGRSGTLIDAIGIYVHPILEQKLISEEDLNSAVDHHHHHH
[1]
  glycan array binding signal (z-score): -0.308
[2]
  glycan array binding signal (z-score): 1.88
[3]
  glycan array binding signal (z-score): -0.3
[4]
  glycan array binding signal (z-score): -0.309
[5]
  glycan array binding signal (z-score): -0.307
[6]
  glycan array binding signal (z-score): -0.307
[7]
  glycan array binding signal (z-score): -0.305
[8]
  glycan array binding signal (z-score): -0.308
[9]
  glycan array binding signal (z-score): 3.71
[10]
  glycan array binding signal (z-score): -0.308
[11]
  glycan array binding signal (z-score): -0.31
[12]
  glycan array binding signal (z-score): -0.305
[13]
  glycan array binding signal (z-score): -0.307
[14]
  glycan array binding signal (z-score): -0.307
[15]
  glycan array binding signal (z-score): -0.306
[16]
  glycan array binding signal (z-score): -0.308
[17]
  glycan array binding signal (z-score): -0.308
[18]
  glycan array binding signal (z-score): -0.307
[19]
  glycan array binding signal (z-score): 3.69
[20]
  glycan array binding signal (z-score): 1.96
[21]
  glycan array binding signal (z-score): 0.063
[22]
  glycan array binding signal (z-score): 2.28
[23]
  glycan array binding signal (z-score): -0.312
[24]
  glycan array binding signal (z-score): -0.306
[25]
  glycan array binding signal (z-score): -0.309
[26]
  glycan array binding signal (z-score): -0.309
[27]
  glycan array binding signal (z-score): -0.302
[28]
  glycan array binding signal (z-score): -0.31
[29]
  glycan array binding signal (z-score): -0.309
[30]
  glycan array binding signal (z-score): -0.307
[31]
  glycan array binding signal (z-score): -0.3
[32]
  glycan array binding signal (z-score): -0.306
[33]
  glycan array binding signal (z-score): 0.157
[34]
  glycan array binding signal (z-score): -0.303
[35]
  glycan array binding signal (z-score): -0.309
[36]
  glycan array binding signal (z-score): -0.308
[37]
  glycan array binding signal (z-score): -0.303
[38]
  glycan array binding signal (z-score): -0.308
[39]
  glycan array binding signal (z-score): -0.303
[40]
  glycan array binding signal (z-score): -0.306
[41]
  glycan array binding signal (z-score): -0.307
[42]
  glycan array binding signal (z-score): -0.291
[43]
  glycan array binding signal (z-score): -0.306
[44]
  glycan array binding signal (z-score): -0.31
[45]
  glycan array binding signal (z-score): -0.306
